The results in this text go back to paper PMC12136788.

The other results are listed elsewhere or left out.

The labels stand for the following.
B1: chr8:38210266:38210373:+|CDS|ENSG00000156735|unk|total|mutant (ssRNA)
RNA: GGGAGUUCUACAGUCCGACGAUCAAAAAUCAUACAUGUGCUGGAGAAGGUCCAGUAUCUUGAACAAGAAGCCGAAGAAUUUGCCGGAAAAAAGACAGACAAAGCAUACUGGCUUCUGGAAGAAAUGCUAACCAAGGAACUUUUCAACAGAGGAUUGAGCAUCA
B2: chr1:179105649:179105771:-|3pUTR|ENSG00000143322|msi1|FALSE|bound_elsewhere (ssRNA)
RNA: GGGAGUUCUACAGUCCGACGAUCAGAAAGGAAACCUUGAUUCUUACCAUUGCUGCUCCAAAGGAGGCCCAGGUUAAGAGGAUUAGAGGAGACACGCGGUGCUGGGCAUUCCUGGCAGGUGUUGGGUGAUCCCCGCAGUAUGUCCAACAGAGGAUUGAGCAUCA
B3: ENSG00000070961:be:win_901|CDS|ENSG00000070961|bound_else_gene|NA|bound_elsewhere_windowed (ssRNA)
RNA: GGGAGUUCUACAGUCCGACGAUCAAAGAUGAGAAGAAAAAGGAAAAGAAAAAUAAGAAACAAGAUGGAGCUAUUGAGAAUCGCAACAAAGCAAAAGCCCAGGAUGGUGCAGCCAUGGAAAUGCAGCCAUUGAAGAGUGAAGAACAACAGAGGAUUGAGCAUCA
B4: ENSG00000141367:stop:overlap|stop_codon|ENSG00000141367|stop_codon|NA|stop_codon (ssRNA)
RNA: GGGAGUUCUACAGUCCGACGAUCAAGUAAUUGCACUGAAAGCAAAAUCGUGUGGUGGGAGCUAUGCAGCUAUAUUCUGUAGAUAGGAAAGUGUCUCAGCCCAUUGAAGGACAUGCAGCUAGCUUUGCACAGUUUAAGAUGGAACAACAGAGGAUUGAGCAUCA
B5: chr1:173734013:173734119:+|CDS|ENSG00000076321|unk|FALSE|unique (ssRNA)
RNA: GGGAGUUCUACAGUCCGACGAUCCAUUGACGAGAGGGCUAUGGAAUUACUGAUUGACUUUGCGUAUACCUCCCAGAUAACAGUAGAAGAGGGCAAUGUUCAGACUCUUCUGCCAGCUGCUUGCCUCCUCCAGCUGGCAGAAAUCAACAGAGGAUUGAGCAUCA
B6: chr5:141515046:141515147:-|3pUTR|ENSG00000131504|msi1_unk|total|mutant (ssRNA)
RNA: GGGAGUUCUACAGUCCGACGAUCAAAAAGAGAGAGAGAGAGAGGUGUGAGGGACAAAAUGCAAACCUAUUUCCCUUGCCUCACCGGCUUCUGGGAUGUCAUCACCUCCAGUUUGUUGGUUUUGUUUCCAACUGUUAAUAAAGCCAACAGAGGAUUGAGCAUCA
B7: chr1:56708525:56708626:+|3pUTR|ENSG00000162409|unk|FALSE|unique (ssRNA)
RNA: GGGAGUUCUACAGUCCGACGAUCACCUUUCUCAAAUUCUUUUUGCCUCUAUUUAUUUUUGCAUUUCACCAACAGUGAUAAAAUAGUUAAAUGAAACAAAGCAAAGUAUCAACAGUCCCUUAAAUGAGAAUCCUUAUCUUUGAUCAACAGAGGAUUGAGCAUCA
B8: chr1:152033651:152033752:-|CDS|ENSG00000163191|unk|FALSE|unique (ssRNA)
RNA: GGGAGUUCUACAGUCCGACGAUCGGAUGGUUAUAACUACACUCUCUCCAAGACAGAGUUCCUAAGCUUCAUGAAUACAGAACUAGCUGCCUUCACAAAGGUACUGGUCCCUGUCUCCCCCACUUCCCCAAACUACCCACAACACAACAGAGGAUUGAGCAUCA
B9: ENSG00000070961:be:win_4201|3pUTR|ENSG00000070961|bound_else_gene|NA|bound_elsewhere_windowed (ssRNA)
RNA: GGGAGUUCUACAGUCCGACGAUCACUGCUGUAUUUUCAGGAAAAAAAAAAAAAGGGGUGUUUCUAUUGAAACUGUACUAAAUUUUUGCCUACAAUUUACCUUGUUAAAUAUUGUAGAUAAAUUGCUAAUACUAAUAGCCAAAUCAACAGAGGAUUGAGCAUCA
B10: ENSG00000107863:be:win_251|CDS|ENSG00000107863|bound_else_gene|NA|bound_elsewhere_windowed (ssRNA)
RNA: GGGAGUUCUACAGUCCGACGAUCAAAAUGGAAACAGAGGAGGAAAACAAAGAAACCGCUUGGAACCAAUGGAUACCAUAUUUGUUAAGCAAGUUAAAGAAGGAGGACCUGCUUUUGAAGCUGGAUUAUGUACAGGUGACCGAACAACAGAGGAUUGAGCAUCA
B11: ENSG00000198589:be:win_4901|CDS|ENSG00000198589|bound_else_gene|NA|bound_elsewhere_windowed (ssRNA)
RNA: GGGAGUUCUACAGUCCGACGAUCCAGAUGCAAUCAGCGAGGUGCUAUCUACUCUUUCUUUAGAAGUCAAUAAGUCUCCGGAAACCAAAAAUGAUAGAGGAAAUGACUUGGACACUAAGGCUACACCGUCAGUUUCAGUUUCAACAACAGAGGAUUGAGCAUCA
B12: chr6:75950561:75951094:-|CDS|ENSG00000112706|control|control|control (ssRNA)
RNA: GGGAGUUCUACAGUCCGACGAUCAGCUUUACAGUAUAUCACCACUAGUUCUAUGACCAUUGCCCCCAAGGGCCGAGAGCUGGUAGUGUUCUUCAGUCUGCGUGUUGCUAACAUGGCCUUCUCCAACGACCUGUUCAACAAGAGCAACAGAGGAUUGAGCAUCA
B13: chr15:52550718:52550819:-|3pUTR|ENSG00000128989|msi1|total|mutant (ssRNA)
RNA: GGGAGUUCUACAGUCCGACGAUCUUUAUAUAAACUUUUUAAAUGCCGAAACUUUUUACUUCCACACUCAGUUUUGGAGACCCCCGAAUAAAAGGCUUCAAUACUCUGCAUUCCAUGCCCUCUGCCACCUGCUUUUUUUUCCCCCAACAGAGGAUUGAGCAUCA
B14: chr16:18805221:18805325:-|3pUTR|ENSG00000157106|unk|total|mutant (ssRNA)
RNA: GGGAGUUCUACAGUCCGACGAUCAAGAAUUCUAUGUUCUGAAAUGCACACUUUCCGAAUGUUUUUCUUUGAAAACAGGCUAACCGUUUUUUCUUUUUUUGACAAAGUUUCAGCUCCUCUUUAAAGUUAUUGUGUCAUUUUUCUCAACAGAGGAUUGAGCAUCA
B15: chr21:32314052:32314153:-|3pUTR|ENSG00000142207|msi1|total|mutant (ssRNA)
RNA: GGGAGUUCUACAGUCCGACGAUCCAUCUCAAAAAAAUAAAAAAAUAAAGUUUGUUUUUCUAUAAAAAGUCAUAACAAAGUAUCCGUAUGACUUUUUGAAUAAGUUAAUUUCUGCCAGUGUUUAAUUAUUUUAUUAAAGAAAAGCAACAGAGGAUUGAGCAUCA
B16: chr7:6162096:6162197:-|3pUTR|ENSG00000008256|msi1|FALSE|unique (ssRNA)
RNA: GGGAGUUCUACAGUCCGACGAUCGUCACAGAACAUUUUGGGGCAGUUUAAUGUGGUACCAAACUGAAAAUAGGAGCUAUUUAUAGAUGGAGCAGCACUUAGUGCUUCAUAGAAAGCAAUGCCUAUUUUUAAAGUUACAAACGCCAACAGAGGAUUGAGCAUCA
B17: ENSG00000213799:stop:overlap|stop_codon|ENSG00000213799|stop_codon|NA|stop_codon (ssRNA)
RNA: GGGAGUUCUACAGUCCGACGAUCUUUUUAAUCGAAAAGCAAAACUUGCACGUCAUCAUAGAAUUCAUACUGGAAAGAAACAUUAGAAAUAUGAAGAAUGUGACAAAGUUUACAGUUGUAAAUCAAGUCUUGAAAGACAGGAGACAACAGAGGAUUGAGCAUCA
B18: chrX:141908562:141908663:+|CDS|ENSG00000155495|unk|total|mutant (ssRNA)
RNA: GGGAGUUCUACAGUCCGACGAUCUCCUCGUUACGAAUUCCUGUGGGGUCCAAGAGCUCAUUCAGAAGUCAUUAAGAGGAAAGCCGCCGAGUUUUUGGCCAUGCUAAAGAAUACCGUCCCUAUUACCUUUCCAUCCUCUUACAACAACAGAGGAUUGAGCAUCA
B19: chr16:70160055:70160156:+|3pUTR|ENSG00000090857|msi1|FALSE|unique (ssRNA)
RNA: GGGAGUUCUACAGUCCGACGAUCUUGUGCUCACCACGAAGGAUGGUCUCUGCCUUCUCUUGUCGGUGUAUGCCAUCUGAACCUAGGAACACAAAGUAUAUUGGCCUCAAACGGAGACCCAGGGUUGCCAGUUUUCCGUGGGCCCAACAGAGGAUUGAGCAUCA
B20: ENSG00000158859:stop:overlap|stop_codon|ENSG00000158859|stop_codon|NA|stop_codon (ssRNA)
RNA: GGGAGUUCUACAGUCCGACGAUCUGAGGCCCCAGUCAGCACCGCAGGCCAUGCACUGCACAAUUCUAAGAAGCGCCACUACAUAGACUAUGAUGCAAAUGAUGUUCCUGGAGUUGUGUGACAUGGUGCCUUGCCCCAGCCACACAACAGAGGAUUGAGCAUCA
B21: chr1:18907414:18907603:-|3pUTR|ENSG00000169991|msi1|FALSE|unique (ssRNA)
RNA: GGGAGUUCUACAGUCCGACGAUCCCUUGAUUUCCCUGAUAACUUGAUGUUCUUCCCUCCCUCGCCAGCCAACAAUAGAGGCUUAGAGAUCUGUAAUUUCUCUGUGAGAAAGUCUGAAGGGGCCAGGCCUGGUCUCUGCUCCCUCAACAGAGGAUUGAGCAUCA
B22: chr1:54216159:54216271:+|CDS|ENSG00000116221|unk|FALSE|unique (ssRNA)
RNA: GGGAGUUCUACAGUCCGACGAUCCUUGGAGCAGCCCGUGGUGGUGCAGAGCGUGGGCACGGAUGGACGUGUCUUCCAUUUCCUAGUGUUUCAACUGAAUACCACAGACCUGGACUGUAACGAGGGUGUCAAGAAUUUGGCCUGCAACAGAGGAUUGAGCAUCA

The test concerns the target MSI1 full-length (mouse, UniProt Q61474 1-362). In words: nsRBNS (natural sequence RNA bind-n-seq); RBNS binding buffer (assumed for nsRBNS): 25 mM Tris pH 7.5, 150 mM KCl, 3 mM MgCl2, 0.01% Triton X-100, 500 ug/ml BSA, 20 U/ml SUPERase-In, 4 C; UNK is unkempt and MSI1 is Musashi-1; names of the RNAs are library labels; protein concentration not given here; high values mean tight binding.
Chain of UniProt Q61474 (Q61474 whole entry): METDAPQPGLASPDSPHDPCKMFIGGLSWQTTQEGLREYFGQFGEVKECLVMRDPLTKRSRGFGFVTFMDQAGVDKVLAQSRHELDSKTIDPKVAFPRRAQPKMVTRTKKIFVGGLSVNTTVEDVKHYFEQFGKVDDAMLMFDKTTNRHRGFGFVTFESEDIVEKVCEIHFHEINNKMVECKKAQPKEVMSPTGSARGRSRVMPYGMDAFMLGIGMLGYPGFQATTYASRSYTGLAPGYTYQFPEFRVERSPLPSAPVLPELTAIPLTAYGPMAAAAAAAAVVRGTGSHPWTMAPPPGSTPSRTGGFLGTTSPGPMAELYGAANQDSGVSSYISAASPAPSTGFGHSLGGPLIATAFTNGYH
In turn, B1 came in with a binding signal of 0.23 enrichment R. The value for B2 was 0.504 enrichment R; that for B3 was 0.774 enrichment R; that for B4 was 4.84 enrichment R. With B5 the figure was 1.23 enrichment R; with B6, 0.471 enrichment R; with B7, 2.24 enrichment R. With B8 the figure was 0.797 enrichment R. B9 came in with a binding signal of 0.987 enrichment R. Consider B10, for which the binding signal came out at 0.485 enrichment R. Molecule B11 gave a binding signal of 0.481 enrichment R. On to B12, for which the binding signal came out at 0.499 enrichment R. With B13 the figure was 0.699 enrichment R; with B14, 0.464 enrichment R.

In turn, B15 yielded a binding signal of 1.43 enrichment R.

B16 yielded a binding signal of 1.08 enrichment R. With B17, the binding signal turned out to be 0.725 enrichment R. The value for B18 was 0.404 enrichment R; that for B19 was 0.303 enrichment R; that for B20 was 0.433 enrichment R.

B21 returned a binding signal of 0.911 enrichment R. B22 came in with a binding signal of 0.488 enrichment R.
